In the supplement of paper PMC6206098:
± gives the uncertainty stated by the source. Shown are siRNA guide strands that differ only in the seed, positions 2 to 7.

What was measured:
HeyA8 = test: cell viability relative to lipid-only control; higher = less toxic; conditions: concentration: 10 nM; 96 h; Homo sapiens
Description: (§1)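 Arrayed screen of 4096 siRNA duplexes, each carrying one of all possible 6mer seeds at guide-strand positions 2-7 in a fixed neutral 19mer scaffold (constant flanks: U at position 1, then ACAUGUAAACCA, plus a 3' AA overhang). The passenger strand is 2'-O-methylated at positions 1-2 so only the guide strand loads into RISC. Duplexes were reverse-transfected at 10 nM with RNAiMAX in triplicate in 384-well plates; viability was read by CellTiter-Glo ATP content 96 h after transfection. Values are % viability normalised to lipid-only wells (HeyA8, H460, M565) or to siNT1 (3LL).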

M565 = test: as above; conditions: concentration: 10 nM; 96 h; Mus musculus
Description: as §1

H460 = test: as above; conditions: concentration: 10 nM; 96 h; Homo sapiens
Description: as §1

3LL = test: cell viability relative to siNT1 control; HeyA8 human ovarian and H460 human lung cancer; M565 mouse liver and 3LL mouse lung cancer; siNT1 is a non-toxic control siRNA; higher = less toxic; conditions: concentration: 10 nM; 96 h; Mus musculus
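Throughout, for cell viability relative to lipid-only control: reverse lipid transfection in 384-well plates, in triplicate, of duplexes on a non-toxic 19mer backbone with passenger strand 2′-O-methylated at positions 1 and 2, luminescence viability read-out.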
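Throughout, for cell viability relative to siNT1 control: Luminescence-based viability of cells reverse transfected in 384-well plates with lipid-complexed siRNAs built on a non-toxic 19mer backbone whose passenger strand carries 2′-O-methyl groups at positions 1 and 2, triplicates.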

Sequence: UCUUGACACAUGUAAACCAAA
- cell viability (HeyA8): 62.2 ± 7.5%
- cell viability (M565): 48.6 ± 11%
- cell viability (H460): 43.3 ± 5.5%
- cell viability (3LL): 83.3 ± 17%

Sequence: UCGCCUGACAUGUAAACCAAA
- cell viability (HeyA8): 80.3 ± 8.6%
- cell viability (M565): 64.5 ± 5.9%
- cell viability (H460): 77.2 ± 5.3%
- cell viability (3LL): 87.2 ± 12%

Sequence: UCAGUAGACAUGUAAACCAAA
- cell viability (HeyA8): 68.9 ± 8.8%
- cell viability (M565): 85.6 ± 4.5%
- cell viability (H460): 57.2 ± 3.1%
- cell viability (3LL): 87 ± 12%

Sequence: UCUUAGGACAUGUAAACCAAA
- cell viability (HeyA8): 80.1 ± 9.1%
- cell viability (M565): 60.6 ± 6.5%
- cell viability (H460): 51.3 ± 1.5%
- cell viability (3LL): 89.2 ± 13%

Sequence: UUAGUAAACAUGUAAACCAAA
- cell viability (HeyA8): 86.8 ± 3%
- cell viability (M565): 95.7 ± 18%
- cell viability (H460): 74.6 ± 7.1%
- cell viability (3LL): 79.4 ± 7.4%

Sequence: UAUCCUAACAUGUAAACCAAA
- cell viability (HeyA8): 91 ± 2.3%
- cell viability (M565): 76.6 ± 14%
- cell viability (H460): 96.7 ± 9.6%
- cell viability (3LL): 117 ± 6.4%

Sequence: UUGAAUUACAUGUAAACCAAA
- cell viability (HeyA8): 83.8 ± 5.4%
- cell viability (M565): 78.3 ± 8.9%
- cell viability (H460): 78.2 ± 8.4%
- cell viability (3LL): 45.7 ± 3.5%

Sequence: UUGUGUGACAUGUAAACCAAA
- cell viability (HeyA8): 41.2 ± 2.7%
- cell viability (M565): 87.3 ± 16%
- cell viability (H460): 51.2 ± 6.5%
- cell viability (3LL): 46.5 ± 5.4%

Sequence: UAAUUGUACAUGUAAACCAAA
- cell viability (HeyA8): 44.7 ± 4.3%
- cell viability (M565): 31 ± 4.5%
- cell viability (H460): 81.6 ± 3%
- cell viability (3LL): 46.8 ± 5%

Sequence: UUAUCGAACAUGUAAACCAAA
- cell viability (HeyA8): 96 ± 6.2%
- cell viability (M565): 73.9 ± 5.2%
- cell viability (H460): 79.5 ± 9.9%
- cell viability (3LL): 77.9 ± 23%

Sequence: UGAUCUAACAUGUAAACCAAA
- cell viability (HeyA8): 69.5 ± 2.2%
- cell viability (M565): 70.9 ± 6.5%
- cell viability (H460): 75.1 ± 11%
- cell viability (3LL): 92.4 ± 14%

Sequence: UUCAUCCACAUGUAAACCAAA
- cell viability (HeyA8): 27.7 ± 5.5%
- cell viability (M565): 25 ± 5.5%
- cell viability (H460): 53.1 ± 7%
- cell viability (3LL): 10.6 ± 0.35%

Sequence: UCGUGUAACAUGUAAACCAAA
- cell viability (HeyA8): 83.2 ± 7.9%
- cell viability (M565): 57.1 ± 6.8%
- cell viability (H460): 84.4 ± 4.8%
- cell viability (3LL): 95.3 ± 13%

Sequence: UGAGAGCACAUGUAAACCAAA
- cell viability (HeyA8): 35.4 ± 2.2%
- cell viability (M565): 4.19 ± 1.2%
- cell viability (H460): 32.2 ± 6.8%
- cell viability (3LL): 19.2 ± 9.9%

Sequence: UUAAACCACAUGUAAACCAAA
- cell viability (HeyA8): 64 ± 3.5%
- cell viability (M565): 97.3 ± 12%
- cell viability (H460): 38.3 ± 3.4%
- cell viability (3LL): 77.5 ± 11%

Sequence: UAAGACCACAUGUAAACCAAA
- cell viability (HeyA8): 56.7 ± 8.7%
- cell viability (M565): 32.4 ± 3%
- cell viability (H460): 59.9 ± 3.9%
- cell viability (3LL): 48.5 ± 6.2%

Sequence: UGACCCGACAUGUAAACCAAA
- cell viability (HeyA8): 74.7 ± 4%
- cell viability (M565): 36.4 ± 4.3%
- cell viability (H460): 50.9 ± 4%
- cell viability (3LL): 55.7 ± 6.7%

Sequence: UAACUUGACAUGUAAACCAAA
- cell viability (HeyA8): 90.1 ± 17%
- cell viability (M565): 80.8 ± 5.5%
- cell viability (H460): 62.2 ± 3.8%
- cell viability (3LL): 81.9 ± 7%

Sequence: UCCUCAAACAUGUAAACCAAA
- cell viability (HeyA8): 90.1 ± 7.5%
- cell viability (M565): 59.8 ± 8.4%
- cell viability (H460): 62.2 ± 9%
- cell viability (3LL): 91.2 ± 15%

Sequence: UUAGUAGACAUGUAAACCAAA
- cell viability (HeyA8): 68.2 ± 6.4%
- cell viability (M565): 98 ± 9.1%
- cell viability (H460): 73.8 ± 14%
- cell viability (3LL): 99 ± 9.8%

Sequence: UUCUGGAACAUGUAAACCAAA
- cell viability (HeyA8): 85.1 ± 4.5%
- cell viability (M565): 29 ± 3%
- cell viability (H460): 69.3 ± 9.3%
- cell viability (3LL): 47.9 ± 1%

Sequence: UAGAGGGACAUGUAAACCAAA
- cell viability (HeyA8): 46.4 ± 2.9%
- cell viability (M565): 21.02 ± 0.05%
- cell viability (H460): 54.4 ± 1.6%
- cell viability (3LL): 54.9 ± 8.2%

Sequence: UAGUAUGACAUGUAAACCAAA
- cell viability (HeyA8): 53.06 ± 0.46%
- cell viability (M565): 33.7 ± 6.5%
- cell viability (H460): 62.7 ± 2.7%
- cell viability (3LL): 88.4 ± 3.7%

Sequence: UGUUAGAACAUGUAAACCAAA
- cell viability (HeyA8): 63.2 ± 11%
- cell viability (M565): 73.9 ± 20%
- cell viability (H460): 82.6 ± 11%
- cell viability (3LL): 58.2 ± 7.3%

Sequence: UGUGCGUACAUGUAAACCAAA
- cell viability (HeyA8): 62.4 ± 6.4%
- cell viability (M565): 48.2 ± 4.7%
- cell viability (H460): 68.3 ± 7.9%
- cell viability (3LL): 44.6 ± 7.4%

Sequence: UACGUGGACAUGUAAACCAAA
- cell viability (HeyA8): 75.6 ± 2.4%
- cell viability (M565): 44.3 ± 7.7%
- cell viability (H460): 69.2 ± 8.4%
- cell viability (3LL): 85.8 ± 5.1%

Sequence: UACCAUAACAUGUAAACCAAA
- cell viability (HeyA8): 101 ± 10%
- cell viability (M565): 84 ± 20%
- cell viability (H460): 58.1 ± 6.3%
- cell viability (3LL): 95.4 ± 13%

Sequence: UAUCAGGACAUGUAAACCAAA
- cell viability (HeyA8): 81.9 ± 3.1%
- cell viability (M565): 74.3 ± 13%
- cell viability (H460): 63.7 ± 4%
- cell viability (3LL): 90.4 ± 5.3%

Sequence: UACUAGGACAUGUAAACCAAA
- cell viability (HeyA8): 25 ± 1.6%
- cell viability (M565): 43.9 ± 5.8%
- cell viability (H460): 49.7 ± 2.5%
- cell viability (3LL): 95.5 ± 7%
